# From the supplement of paper PMC8512760
# Structures can show the parent of a compound that is named as a salt. The list shows a part of the results. Most values come without repeats; read them as rough.
# Experiments:
# Assay in all cases: cell viability relative to vehicle (% of vehicle); basal-like triple-negative breast cancer lines; higher = less cytotoxic
# Conditions in all cases: 10 µM; 72 h
# [1] = system: HCC-1143
# [2] = system: HCC-1187
# [3] = system: MDA-468
# [4] = system: SUM-149
# 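Also: stably firefly luciferase-GFP labeled cells in 96-well plates, viability read as luciferase photon flux after d-luciferin addition, treated wells normalized to vehicle wells, single-dose high-throughput screen.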
Structure (SMILES),cell viability [1],cell viability [2],cell viability [3],cell viability [4]
O=C([O-])c1ccccc1O.[Na+] [Sodium salicylate],78.8,77.2,95.1,105
CS(=O)(=O)O.OC(CCN1CCCCC1)(c1ccccc1)c1ccccc1 [Pridinol Methanesulfonate],78.5,114,116,90.3
CCOC(=O)C(CCc1ccccc1)NC1CSC(c2cccs2)CN(CC(=O)O)C1=O.Cl (stereo not given) [Temocapril HCl],97.4,92.3,104,110
Clc1ccc(COC(Cn2ccnc2)c2ccc(Cl)cc2Cl)cc1.O=[N+]([O-])O (stereo not given) [Econazole nitrate],100,96.8,113,138
NC(=O)C1CCCc2c1[nH]c1ccc(Cl)cc21 (stereo not given),98.9,102,63.5,146
CCCCOc1ccc(C(=O)CCN2CCCCC2)cc1.Cl [Dyclonine HCl],95.4,81.8,139,123
CCCCCOc1ccc(-c2cc(-c3ccc(C(=O)NC4CC(O)C(O)NC(=O)C5C(O)C(C)CN5C(=O)C(C(O)CC(N)=O)NC(=O)C(C(O)C(O)c5ccc(O)c(OS(=O)(=O)[O-])c5)NC(=O)C5CC(O)CN5C(=O)C(C(C)O)NC4=O)cc3)no2)cc1.[Na+] (stereo not given) [Micafungin sodium],86.6,112,83.6,109
[I-].[K+] [Potassium Iodide],77.7,91.5,102,100
Cc1ccc(C(=O)C(C)CN2CCCCC2)cc1.Cl (stereo not given) [Tolperisone HCl],76.2,92.9,112,94.2
CCCNCC(O)COc1ccccc1C(=O)CCc1ccccc1.Cl (stereo not given) [Propafenone HCl],70.6,108,143,99.4
CO[C@@]12[C@H](COC(N)=O)C3=C(C(=O)C(C)=C(N)C3=O)N1C[C@@H]1N[C@@H]12 [Mitomycin C],32.7,15.3,26.3,32.6
CCCNC(C)C(=O)Nc1ccccc1C (stereo not given) [Prilocaine],80.9,88.4,91.4,94.9
CN1CCCC1CCOC(C)(c1ccccc1)c1ccc(Cl)cc1.O=C(O)C=CC(=O)O (stereo not given) [Clemastine Fumarate],86.9,93.2,80.2,68.9
O=C(O)c1cccnc1Nc1cccc(C(F)(F)F)c1 [Niflumic acid],78.6,99.3,95.5,105
COc1ccc(C(=O)CC(=O)c2ccc(C(C)(C)C)cc2)cc1 [Avobenzone],79.3,101,104,93.4
CN1CCc2nc(C(=O)NC3CC(C(=O)N(C)C)CCC3NC(=O)C(=O)Nc3ccc(Cl)cn3)sc2C1.Cc1ccc(S(=O)(=O)O)cc1.O (stereo not given) [Edoxaban tosylate monohydrate],89.1,106,84.3,126
NC(=O)c1ncn(C2OC(CO)C(O)C2O)c1O (stereo not given) [Mizoribine],59.7,70.4,88.3,95.6
CC(OC1OCCN(Cc2nc(=O)n(P(=O)(O)O)[nH]2)C1c1ccc(F)cc1)c1cc(C(F)(F)F)cc(C(F)(F)F)c1.CNCC(O)C(O)C(O)C(O)CO.CNCC(O)C(O)C(O)C(O)CO (stereo not given) [Fosaprepitant dimeglumine salt],92.2,49.4,109,138
COc1ccnc(C[S+]([O-])c2nc3cc(OC(F)F)ccc3[nH]2)c1OC (stereo not given) [Pantoprazole],103,120,101,95
C[N+](C)(C)CCOC(=O)CCC(=O)OCC[N+](C)(C)C.O.O.[Cl-].[Cl-] [Succinylcholine Chloride Dihydrate],77.8,88.5,93.4,94.4
O=C(c1ccc(F)c(F)c1Nc1ccc(I)cc1F)N1CC(O)(C2CCCCN2)C1 (stereo not given) [Cobimetinib],86.7,60.5,82.2,48.4
CCC(C)n1ncn(-c2ccc(N3CCN(c4ccc(OCC5COC(Cn6cncn6)(c6ccc(Cl)cc6Cl)O5)cc4)CC3)cc2)c1=O (stereo not given) [Itraconazole],64.9,65.8,90.6,113
CNCCC(Oc1ccccc1C)c1ccccc1.Cl (stereo not given) [Atomoxetine HCl],109,121,111,117
Cn1c(=O)c2[nH]cnc2n(C)c1=O.Cn1c(=O)c2[nH]cnc2n(C)c1=O.NCCN [Aminophylline],85.8,83.3,74.5,86.7
COc1cc2c(cc1OC)CN(CCc1ccc(NC(=O)c3cccc4c(=O)c5cccc(OC)c5[nH]c34)cc1)CC2 [Elacridar],87.7,110,73.4,104

Structure (SMILES),cell viability [1],cell viability [2],cell viability [3],cell viability [4]
CC(OC1OCCN(Cc2nc(=O)[nH][nH]2)C1c1ccc(F)cc1)c1cc(C(F)(F)F)cc(C(F)(F)F)c1 (stereo not given) [Aprepitant],81.2,77.5,77.1,123
Cc1ccc(C(=O)c2cc(O)c(O)c([N+](=O)[O-])c2)cc1 [Tolcapone],83.6,110,98.3,100
Cc1ccc(-c2ncc(Cl)cc2-c2ccc(S(C)(=O)=O)cc2)cn1 [Etoricoxib],78.2,107,103,92.3
CNC(=O)c1cc(Oc2ccc(NC(=O)Nc3ccc(Cl)c(C(F)(F)F)c3)cc2)ccn1.Cc1ccc(S(=O)(=O)O)cc1 [Sorafenib Tosylate],82.4,100,93.4,103
Cc1cccc(CN2CCN(C(c3ccccc3)c3ccc(Cl)cc3)CC2)c1.Cl.Cl (stereo not given) [Meclizine 2HCl],95.2,97.1,125,91
CC1(C)O[C@@H]2C[C@H]3[C@@H]4C[C@H](F)C5=CC(=O)C=C[C@]5(C)[C@@]4(F)[C@@H](O)C[C@]3(C)[C@]2(C(=O)CO)O1 [Fluocinolone Acetonide],86.6,95,154,189
Cc1nc(Nc2ncc(C(=O)Nc3c(C)cccc3Cl)s2)cc(N2CCN(CCO)CC2)n1,39.5,65.8,146,40.8
CCc1c2c(nc3ccc(OC(=O)N4CCC(N5CCCCC5)CC4)cc13)-c1cc3c(c(=O)n1C2)COC(=O)C3(O)CC (stereo not given) [Irinotecan],112,54.1,76.3,119
COc1cc(C2c3cc4c(cc3C(OC3OC5COC(C)OC5C(O)C3O)C3COC(=O)C23)OCO4)cc(OC)c1O (stereo not given) [Etoposide],94.2,47.9,58.9,82.5
NC(=O)Cc1cccc(C(=O)c2ccccc2)c1N [Nepafenac],99.7,104,105,101
CN(CCOc1ccc(NS(C)(=O)=O)cc1)CCc1ccc(NS(C)(=O)=O)cc1 [Dofetilide],79.8,93.4,104,106
CCCCCC(O)C=CC1C(O)CC(=O)C1CCCCCCC(=O)O (stereo not given) [Alprostadil],102,90.2,120,101
COc1cccc2c1C(=O)c1c(O)c3c(c(O)c1C2=O)CC(O)(C(=O)CO)CC3OC1CC(N)C(O)C(C)O1 (stereo not given) [Doxorubicin],48.2,28,32.8,48.1
CCNC1(C(N)=O)CCN(c2ncnc3c2nc(-c2ccccc2Cl)n3-c2ccc(Cl)cc2)CC1.Cl,83.6,102,100,86.4
Cl.Cl.O=C1c2c(O)ccc(O)c2C(=O)c2c(NCCNCCO)ccc(NCCNCCO)c21 [Mitoxantrone HCl],24.9,25.1,33.8,31.2
NC(=O)c1cn(Cc2c(F)cccc2F)nn1 [Rufinamide],75.1,97.9,138,116
Cc1ncc([N+](=O)[O-])n1CC(C)O (stereo not given) [Secnidazole],83.1,78.8,110,101
"CC1(C)SC2C(NC(=O)C(C(=O)[O-])c3ccccc3)C(=O)N2C1C(=O)[O-].[Na+].[Na+] (stereo not given) [Carbenicillin, Disodium Salt]",84.8,105,86.5,76.7
Nc1nc(=O)c2c(CCc3ccc(C(=O)NC(CCC(=O)[O-])C(=O)[O-])cc3)c[nH]c2[nH]1.[Na+].[Na+] (stereo not given) [Pemetrexed],66.6,90.7,62,81.5
CN(C)CCCOc1nn(Cc2ccccc2)c2ccccc12.Cl [Benzydamine HCl],98.6,119,124,79.1
Cc1[nH]c(=O)c(C#N)cc1-c1ccncc1 [Milrinone],83.6,96.1,100,187
O=C1C(CCC(O)c2ccc(F)cc2)C(c2ccc(O)cc2)N1c1ccc(F)cc1 (stereo not given) [Ezetimibe],77.3,75.4,103,129
Cc1ccc(-n2[nH]c(C)c(NN=C3C=CC=C(c4cccc(C(=O)O)c4)C3=O)c2=O)cc1C [Eltrombopag],81.7,82.2,92.9,115
CC(CN1c2ccccc2Sc2ccccc21)N(C)C (stereo not given) [Promethazine HCl],123,101,111,82
Nc1nc(CC(=O)Nc2ccc(CCNCC(O)c3ccccc3)cc2)cs1 (stereo not given) [Mirabegron (YM178)],86.4,121,137,100
